# Measurements from PubChem BioAssay AID588855 (National Center for Advancing Translational Sciences (NCATS), 2011).
# Hit rate of the full screen: of about 410,000 compounds, about 5,000 (1.2%) were called active. Inconclusive results, whose numbers are uncertain, are shown with a selection of clear calls. Calls follow the shape of the dose curve; as a rule, active = well fitted inhibition curve with a large enough effect; inconclusive = small, poorly fitted or top-dose-only effect; inactive = no such curve, though single readings can be large or run the other way. A potency beside an inconclusive call is a rough fit, not a confirmed value.
# Assay: qHTS for Inhibitors of TGF-b; also: nearly all actives have a fitted effect of over 65% in size
# Details: HepG2 CAGA-GFP TGF-b/SMAD3 reporter, GFP fluorescence, 18 h, TGF-beta stimulated, 500 pg/mL final; series mostly up to 46.1 µM
# Outline: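 Cell-based qHTS in HEPG2 carrying a CAGA-GFP Smad reporter; compounds added before 500 pg/mL final TGF-beta, 18 h incubation at 37 degrees C, GFP fluorescence quantified per cell by imaging cytometry.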
# Potency is read from the fitted curve at half-maximal effect; tags tell the direction and shape of the fitted curve.
row,Structure (SMILES),Potency
1,CCN(CC)c1cc(C)c2cc(NC(=O)c3ccc(OC)c(OC)c3)ccc2n1,"inconclusive: 31.6 µM [inhibitor, single point]"
2,N#Cc1c(-c2ccccc2F)cc(-c2cccnc2)nc1N,"inconclusive: 35.5 µM [inhibitor, partial curve, poor fit]"
3,OC(c1cccc(Cl)c1)c1nc(-c2ccc(F)c(Cl)c2)cs1 (stereo unspecified),"inconclusive: 35.5 µM [inhibitor, single point]"
4,O=C1C(N2CCOCC2)=C(n2nnc3ccccc32)C(=O)c2ccccc21,"inconclusive: 2.82 µM [inhibitor, single point]"
5,O=C(CSc1ccc(Cl)cc1)Nc1ccc(N2CCN(C(=O)c3ccco3)CC2)cc1,"inconclusive: 1.58 µM [inhibitor, partial curve, poor fit]"
6,O=C(Cc1cccc(NC(=O)C2CCN(C(=O)CCc3ccccc3)CC2)c1)Nc1cccc(C(=O)N2CCCCC2)c1,"inconclusive: 25.1 µM [inhibitor, single point]"
7,O=C(CCCN1C(=O)/C(=C/c2cccs2)SC1=S)Nc1cc([N+](=O)[O-])ccc1O,"inconclusive: 17.8 µM [inhibitor, single point]"
8,Cc1ccc(CNC(=O)CCS(=O)(=O)c2cc3c4c(c2)CCN4C(=O)CC3)cc1,"inconclusive: 5.01 µM [inhibitor, single point]"
9,CCc1ccc(NC(=O)CSc2nc3c([nH]c4ccccc43)c(=O)n2-c2ccc(C)cc2)cc1,"inconclusive: 20 µM [inhibitor, partial curve, poor fit]"
10,COc1cccc(C(=O)NNC(=O)c2ccc3ccccc3c2O)c1,"inconclusive: 15.8 µM [inhibitor, single point]"
11,O=C(Nc1ccc(Cl)cc1)c1cnn2c1NC(c1ccccc1)=CC2c1ccccc1 (stereo unspecified),"inconclusive: 17.8 µM [inhibitor, single point]"
12,COc1ccc(C(=O)NN/C=C/C(=O)c2ccc(Br)cc2)cc1,"inconclusive: 11.2 µM [inhibitor, partial curve, poor fit]"
13,CC(C)(C)C(=O)Nc1nnc(SCC(=O)NC2CCCC2)s1,"inconclusive: 3.55 µM [inhibitor, single point]"
14,Cc1ccc(NC(=O)CC2C(=O)OCC3CCCCN32)cc1Cl (stereo unspecified),"inconclusive: 11.2 µM [inhibitor, single point]"
15,COc1cccc(CN(C(=O)COc2ccc(Cl)c(C)c2)C2CCS(=O)(=O)C2)c1 (stereo unspecified),"inconclusive: 10 µM [inhibitor, partial curve]"
16,C/C(=N\NC(=O)CSc1nc2ccccc2s1)c1cccnc1,"inconclusive: 6.31 µM [inhibitor, single point]"
17,CSc1ccc(C2c3[nH]c4ccccc4c3CCN2C(=O)c2ccnn2C)cc1 (stereo unspecified),"inconclusive: 10 µM [inhibitor, partial curve, poor fit]"
18,Cc1ccc(C2CC(=O)n3nc(-c4ccc(Cl)cc4)nc3S2)cc1 (stereo unspecified),"inconclusive: 7.94 µM [inhibitor, partial curve]"
19,Cc1sc2ncnc(NCC3COc4ccccc4O3)c2c1C (stereo unspecified),"inconclusive: 0.158 µM [inhibitor, full curve, poor fit]"
20,CN1CCN(c2ccc(NC(=O)c3sc4ccccc4c3Cl)cc2)CC1,inactive
21,CCOc1ccccc1NC(=O)CSc1nc2ccccc2nc1N1CCOCC1,"inconclusive: 1.12 µM [inhibitor, full curve, poor fit]"

row,Structure (SMILES),Potency
1,Cc1ccc(F)cc1-c1cc2nc(NCCCN(C)C)n(C)c(=O)c2s1,"inconclusive: 35.5 µM [inhibitor, single point]"
2,O=C(Nc1nc(-c2cccs2)cs1)c1ccc(S(=O)(=O)N2CCCC2)cc1,"inconclusive: 2.82 µM [inhibitor, partial curve, poor fit]"
3,CN(C)C1=NC[C@H](Cc2ccccc2)N1CCc1cccc(F)c1,inactive
4,O=C(c1ccc(S(=O)(=O)Nc2ccc(F)cc2)cc1)N1CCN(c2ccccn2)CC1,"inconclusive: 1.12 µM [inhibitor, full curve]"
5,COC(=O)c1cc(NS(=O)(=O)c2ccc3c(c2)OCCO3)ccc1Cl,"inconclusive: 17.8 µM [inhibitor, single point]"
6,COc1ccc2c(c1OC)C(=O)OC2,inactive
7,O=S(=O)(Nc1cccc(Cl)c1)c1cccc(-n2cnnn2)c1,"inconclusive: 5.62 µM [inhibitor, single point]"
8,COc1ccc(N(CC(=O)NCCSCc2cccc(Cl)c2)S(C)(=O)=O)cc1Cl,"inconclusive: 8.91 µM [inhibitor, partial curve, poor fit]"
9,Cc1cc(F)ccc1NC(=O)c1csc2c1CCC(C)C2 (stereo unspecified),"inconclusive: 0.631 µM [inhibitor, full curve]"
10,Cc1cc(/C=C2\SC(N)=NC2=O)c(C)n1-c1ccccc1,inactive
11,S=C(NCc1ccco1)Nc1ccc(Cl)c(Cl)c1,"inconclusive: 12.6 µM [inhibitor, partial curve, poor fit]"
12,CCOC(=O)N1CC=C2C(C#N)=C(N)C(C#N)(C#N)[C@H](c3ccc(OC(C)C)c(OCC)c3)[C@H]2C1,inactive
13,NC(=O)c1cccc(Nc2nc(C(N)CCc3ccccc3)cs2)n1 (stereo unspecified),inactive
14,COc1ccc(S(=O)(=O)Cc2ccc(C(=O)N3CCN(c4ccc(Cl)cc4)CC3)o2)cc1,"inconclusive: 35.5 µM [inhibitor, single point]"
15,CNCCCOc1ccc(C)cc1Br,inactive
16,CN(C)c1ccc(/C=C/c2c[n+](C)cc3ccccc23)cc1,active: 12.6 µM
17,COC(=O)c1ccccc1NC(=O)CN(C)S(=O)(=O)c1ccc(OC)c(C)c1,inactive
18,CN(C)CCCn1c(SCC(=O)Nc2nc(-c3cccc(Br)c3)cs2)nc2ccccc2c1=O,"inconclusive: 35.5 µM [inhibitor, single point]"
19,CCC(c1ccccc1)C(CC)c1cc(O)c(O)c(O)c1 (stereo unspecified),"inconclusive: 35.5 µM [inhibitor, single point]"
20,CCn1c(=O)c(C(=O)CN2CCN(S(=O)(=O)c3cc(C)ccc3C)CC2)c(N)n(Cc2ccccc2)c1=O,active: 11.2 µM
